# Measured values as given in paper PMC4336329 (PLoS ONE, 2015).
# Among all 310,000 compounds or so, about 2,200 (0.71%) showed an effect of 50% or more. Effects have a minus sign here. The list shows a part of the results.
# Molecular target: human ether-à-go-go-related gene (hERG) potassium channel (human, UniProt Q12809)
# Test: primary screen, population patch clamp on CHO cells stably expressing hERG
# Sequence of human ether-à-go-go-related gene (hERG) potassium channel (Q12809 whole entry, looked up): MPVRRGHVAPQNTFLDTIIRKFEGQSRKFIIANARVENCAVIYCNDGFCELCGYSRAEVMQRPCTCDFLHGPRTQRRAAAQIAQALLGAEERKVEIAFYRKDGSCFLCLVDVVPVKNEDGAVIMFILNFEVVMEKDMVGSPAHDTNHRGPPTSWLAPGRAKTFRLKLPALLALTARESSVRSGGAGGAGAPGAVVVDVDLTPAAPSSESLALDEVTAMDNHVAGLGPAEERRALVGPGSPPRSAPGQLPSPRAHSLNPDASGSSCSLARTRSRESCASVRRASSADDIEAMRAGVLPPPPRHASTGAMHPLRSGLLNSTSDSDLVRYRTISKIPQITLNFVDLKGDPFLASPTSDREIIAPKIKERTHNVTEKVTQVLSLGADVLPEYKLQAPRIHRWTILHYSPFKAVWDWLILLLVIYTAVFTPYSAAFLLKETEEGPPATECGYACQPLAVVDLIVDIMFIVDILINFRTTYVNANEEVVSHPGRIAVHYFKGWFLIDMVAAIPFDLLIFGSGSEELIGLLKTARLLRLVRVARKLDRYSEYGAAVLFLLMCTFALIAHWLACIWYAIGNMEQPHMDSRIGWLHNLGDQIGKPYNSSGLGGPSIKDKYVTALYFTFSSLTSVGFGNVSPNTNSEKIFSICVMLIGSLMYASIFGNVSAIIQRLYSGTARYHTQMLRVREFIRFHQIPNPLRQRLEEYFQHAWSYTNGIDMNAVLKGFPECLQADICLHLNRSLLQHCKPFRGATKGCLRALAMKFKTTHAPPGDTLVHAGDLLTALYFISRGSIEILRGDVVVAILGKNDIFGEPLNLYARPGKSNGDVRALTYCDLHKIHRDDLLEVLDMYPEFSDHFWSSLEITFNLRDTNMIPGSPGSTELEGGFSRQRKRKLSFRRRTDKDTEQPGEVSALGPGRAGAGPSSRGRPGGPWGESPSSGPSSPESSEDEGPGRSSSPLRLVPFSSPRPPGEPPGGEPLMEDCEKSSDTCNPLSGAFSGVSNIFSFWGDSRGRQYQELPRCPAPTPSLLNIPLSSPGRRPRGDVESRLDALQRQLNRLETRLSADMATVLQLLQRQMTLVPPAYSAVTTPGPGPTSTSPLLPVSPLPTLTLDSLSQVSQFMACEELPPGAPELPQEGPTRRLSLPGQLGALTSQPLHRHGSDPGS
row,SMILES,"hERG current change (%, negative = inhibition) at 1uM [%]"
1,COc1ccc(CCNC(=O)CSc2nc3ccccc3o2)cc1,2.32
2,Cc1cc(S(=O)(=O)NCc2ccccc2)ccc1OCC(=O)NCc1ccncc1,9.34
3,CNC(=S)N/N=C/c1cc(Br)cc(Br)c1O,1.91
4,COCC(=O)N1CCC(Oc2ccc(C(=O)N3C[C@H]4CC[C@H]3C4)cc2)CC1,10.7
5,COc1ccc(N(CC(=O)NC2CCCCC2)C(=O)c2snc(C(N)=O)c2N)cc1,10.7
6,CCOc1ccc(C(C)=O)cc1CN1C(=O)NC2(CCCCC2C)C1=O (stereo not drawn),6.38
7,COCCN1C=C(C(=O)OC)C(c2ccc3c(c2)OCO3)C(C(=O)OC)=C1,7.91
8,CCC1Cc2c(nc(N)c3c(N)nc(N4CCCCC4)c(C#N)c23)O1 (stereo not drawn),-6.28
9,O=C1Nc2cc(C(=O)NCCN3CCCCCC3)ccc2S/C1=C\c1ccccc1,2.56
10,O=C(CCNC(=O)c1ccc(Cl)cc1)NN1C(=O)NC2(CCCCC2)C1=O,8.84
11,O=C(COc1ccccc1)NS(=O)(=O)c1ccc(Cl)cc1,16.6
12,CCN(CC)C(=O)c1cnn(-c2ccccc2)c1NC(=O)c1ccco1,1.12
13,Nc1ccc(NC(=O)c2ccco2)c(Cl)c1,12.5
14,FC(F)(F)c1cccc(-c2nnc3ccc(C(F)(F)F)cn23)c1,-25.2
15,Cc1ccc(S(=O)(=O)c2cc3ccccc3oc2=Nc2ccc3c(c2)OCO3)cc1,12.2
16,CC(=O)c1ccc(OCc2cc(C(=O)N(C)CCOc3ccc(C)cc3)no2)cc1,12.1
17,CC(C)(C)C(=O)Nc1ccnn1C1CCN(C(=O)c2cccc(Cl)c2)CC1,12.7
18,N#C/C(C(N)=O)=C1/SC=C(c2ccccc2)N1c1ccccc1,11.4
19,COCCN(C(=O)Cc1cccs1)C(C(=O)NCc1ccc(OC)cc1)c1ccccc1 (stereo not drawn),8.8

row,SMILES,"hERG current change (%, negative = inhibition) at 1uM [%]"
1,Cc1cc(C(=O)CN2C(=O)C(=O)N(Cc3ccccc3)C2=O)c(C)n1-c1ccc2c(c1)OCCO2,9.24
2,CSc1nc(Cc2ccccc2)cc(=O)[nH]1,13.2
3,CCc1ccc(/C=C2/C(=O)NC(=O)N2C(C)=O)cc1,8.92
4,CCOc1ccc(NC(=O)CC2C(=O)N(C)C(=S)N2Cc2ccc3c(c2)OCO3)cc1 (stereo not drawn),5.45
5,CC1Cc2nc(SCC(=O)NCc3ccco3)n(-c3ccccc3)c(=O)c2S1 (stereo not drawn),-3.27
6,Cc1ccc(OCc2nc(-c3ccccn3)no2)c(Br)c1,7.71
7,CC1CN(C(=O)c2cccs2)CC(C)O1 (stereo not drawn),7.22
8,O=C(CCS(=O)(=O)c1ccccc1)Nc1ccc(-c2nc3ccccc3s2)c(O)c1,10
9,Cn1c(=O)c2c(nc(CN3CCN(C(=O)c4ccco4)CC3)n2CC(=O)C(C)(C)C)n(C)c1=O,15.9
10,CCC(NC(=O)NCc1ccc2c(c1)OCO2)(C(F)(F)F)C(F)(F)F,-0.276
11,COc1ccc(/C(C)=N/NC(=O)CNC(=O)Cc2ccccc2)c(OC)c1,8.11
12,CCN(Cc1cccc(F)c1)C(=O)c1ccc2ccccc2n1,5.47
13,COc1ccc(/C=C/C(=O)OCC(=O)NC2CCCCC2C)c(OC)c1 (stereo not drawn),5.67
14,CC(C)c1ccc(NC(=O)NCc2ccc3c(c2)OCO3)cc1,11.9
15,Cc1cc(OCCCn2ccnc2)cc(C)c1Cl,-4.75
16,CC(=O)c1ccc2c(c1)C1C(Cl)C(Sc3ccccc3[N+](=O)[O-])CC1C(c1ccccc1)N2 (stereo not drawn),-3.01
17,Cc1ccc(S(=O)(=O)NNc2ccccc2)cc1,14.3
18,CCN1CCCC1CNC(=O)c1cc2cc(OC)c(OC)cc2[nH]1 (stereo not drawn),16.2
19,Cc1csc(NC(=O)COCC(=O)O)c1-c1nc2ccccc2s1,4.92

row,SMILES,"hERG current change (%, negative = inhibition) at 1uM [%]"
1,Cc1sc(C(=O)NCc2cccnc2)c2nc(C)n(CC(=O)NCc3cccnc3)c(=O)c12,11
2,CC(C)CNC(=S)N1CCC(C(=O)c2ccc3c(c2)OCCO3)CC1,9.85
3,CCc1nnc(NC(=O)c2cccc(S(=O)(=O)N3CCCC3)c2)s1,17.3
4,CCn1c2ccccc2c2n[nH]c(=S)nc21,15.3
5,NC(=O)N/N=C1\c2ccccc2-c2c(C(N)=O)cccc21,13.1
6,COc1ccc(NC(=O)c2sc(SCc3ccccc3)nc2N)cc1,13.7
7,COc1ccc(N(C(=O)c2ccc(S(=O)(=O)N3CCOCC3)cc2)C2C=CS(=O)(=O)C2)cc1 (stereo not drawn),-14.2
8,COc1cccc(/C=N/NC(=O)CCCC(=O)Nc2ccc(Br)cc2)c1,5.21
9,COc1ccccc1N1CCN(C2CCCN(C(=O)c3cscn3)C2)CC1 (stereo not drawn),12.7
10,O=C(CN1CCN(C/C=C/c2ccccc2)CC1)NCc1ccccc1,-53.6
11,CC(C)CC(C(=O)O)N(Cc1ccccc1)Cc1ccccc1 (stereo not drawn),12.3
12,COC(=O)c1cc(Br)c(=O)n(CCN2CCCCC2)c1,20.9
13,Cc1nn(Cc2ccc(C(=O)N3c4ccc(F)cc4CCC3C)o2)c(C)c1Br (stereo not drawn),7.41
14,CC1CCN(S(=O)(=O)c2ccc(C(=O)NC3CCS(=O)(=O)C3)cc2)CC1 (stereo not drawn),-4.12
15,Nn1c(SCC(=O)NC2CCCCC2)nnc1-c1ccccc1,9.28
16,O=C(O)C(Cc1cn[nH]n1)=NO,9.55
17,CCc1nc(N)c(C#N)c(-c2cccnc2)c1C,11.8
18,Cc1ccc(S(=O)(=O)N2CCCC2C(=O)OCc2nc3ccccc3s2)cc1 (stereo not drawn),8.44
19,Cc1ccc(C2CC(c3ccc(F)cc3)Nc3nc(N)nn32)cc1 (stereo not drawn),10.4
